Data: PubChem BioAssay AID1030 (National Center for Advancing Translational Sciences (NCATS), 2008)
The whole screen tested about 220,000 compounds, of which about 16,000 (7.3%) were called active. This list was built around the results that the source calls inconclusive (neither active nor inactive); the mix of calls is not that of the screen. Calls come from the whole dose curve; as a rule, active = well fitted inhibition curve with a large enough effect (not every such curve was filed as active); inconclusive = small, poorly fitted or top-dose-only effect, or another doubt; inactive = no such curve, though single readings can be large or run the other way. No potency is given beside an inconclusive call; the fits are too rough.

Each compound was assayed against Aldehyde dehydrogenase 1A1 (Homo sapiens) (UniProt P00352) (assay: qHTS Assay for Inhibitors of Aldehyde Dehydrogenase 1 (ALDH1A1)). Settings: Purified ALDH1A1, NADH fluorescence, propionaldehyde substrate; series mostly up to 75.3 µM; activity, negative = inhibition: at the top concentration.
Potency is the fitted concentration of half-maximal effect; tags give direction and shape of the fitted curve.
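Throughout, for activity, negative = inhibition: plate controls were no enzyme wells and a reference inhibitor.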

Chain of UniProt P00352 (P00352 whole entry, looked up): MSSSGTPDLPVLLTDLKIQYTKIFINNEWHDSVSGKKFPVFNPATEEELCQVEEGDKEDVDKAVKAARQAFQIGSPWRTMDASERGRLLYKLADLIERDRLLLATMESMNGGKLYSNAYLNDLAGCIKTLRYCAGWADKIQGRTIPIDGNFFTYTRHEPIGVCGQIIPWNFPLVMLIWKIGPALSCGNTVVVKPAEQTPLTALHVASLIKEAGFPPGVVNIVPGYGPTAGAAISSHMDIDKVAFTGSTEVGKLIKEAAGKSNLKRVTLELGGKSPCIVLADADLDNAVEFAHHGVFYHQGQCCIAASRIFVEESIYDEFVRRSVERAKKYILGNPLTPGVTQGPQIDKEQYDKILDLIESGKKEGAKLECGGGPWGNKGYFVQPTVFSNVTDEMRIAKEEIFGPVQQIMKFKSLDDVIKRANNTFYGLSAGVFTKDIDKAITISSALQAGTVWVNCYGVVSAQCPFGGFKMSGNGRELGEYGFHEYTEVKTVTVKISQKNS

Compound	activity, negative = inhibition	Potency
CC(C)(Oc1ccc(-c2cccc3ccccc23)cc1)C(=O)O	inactive: 5.25% [at 13.5 µM]	–
O=C(CSc1ccc(Cl)cc1)Nc1ccccc1N1CCN(C(=O)c2ccccc2)CC1	–	inconclusive [inhibitor, single point]
O=S(=O)(c1ccc(Cl)c(C(F)(F)F)c1)N1CCN(c2ccccn2)CC1	inactive: 2.25%	–
CCOC(=O)N1CCC(NC(=S)Nc2ccc3nc(N4CCN(C)CC4)cc(C)c3c2)CC1	–	inconclusive [inhibitor, partial curve]
O=c1cc(-c2ccc([N+](=O)[O-])cc2)nc2cc(-c3ccc(F)cc3)[nH]n12	–	active: 7.94 µM
CCN(CC)C(=O)CSc1nnc(-c2ccccc2)o1	inactive: 0.467%	–
COc1ccccc1C(=O)N1C(CC(=O)Nc2cc(Cl)ccc2C)C(=O)NC2CCCCC21 (centres undefined)	–	inconclusive [inhibitor, partial curve]
O=C(COC(=O)Cc1ccc(Br)cc1)NC1CCCCCC1	inactive: -5.28%	–
CCN(C(=O)CN1CCN(Cc2ccccc2)CC1)c1c(N)n(Cc2ccccc2)c(=O)[nH]c1=O	inactive: -0.126%	–
CC(NC(=O)Cn1cnnn1)C12CC3CC(CC(C3)C1)C2 (centres undefined)	–	inconclusive [inhibitor, single point]
Cc1ccc(S(=O)(=O)N2CCCCC2)cc1NC(=O)COC(=O)c1ccccc1F	–	inconclusive [inhibitor, partial curve]
O=C(Oc1ccccc1)N1CCC2(CC1)CCN(c1ncccn1)CC2	–	inconclusive [inhibitor, single point]
O=C(CCc1nnc(CCCCc2ccccc2)o1)NCCCc1cccnc1	–	inconclusive [inhibitor, single point]
CCOCC(=O)Nc1cc(-c2cn3cccnc3n2)ccc1C	–	inconclusive [inhibitor, partial curve]
Cc1cc(C(F)(F)F)nn1CC(=O)NCc1ccccc1	inactive: -5.83%	–
CC(=O)n1cc(/C=N/NC(=O)c2sc(C)nc2C)c2ccccc21	–	inconclusive [inhibitor, single point]
CCc1cc2c3c(c(=O)oc2cc1OC)CCCC3	–	inconclusive [inhibitor, partial curve]
CC(C)CC(c1nnnn1C1CCCC1)N1CCN(C(=O)c2ccco2)CC1 (centres undefined)	–	active: 8.91 µM
C/C(=N\NC(=O)c1cccnc1)c1nnn(-c2nonc2N)c1C	inactive: 5.84%	–
Cc1c(NC(=O)CN2C(=O)NC(C)(c3ccc4c(c3)OCCO4)C2=O)c(=O)n(-c2ccccc2)n1C (centres undefined)	inactive: 9.53%	–
COc1cc2oc(-c3ccccc3)cc(=O)c2cc1O	–	inconclusive [inhibitor, single point]
CCCCNC(=O)c1nc2ncc(Br)cn2n1	–	inconclusive [inhibitor, partial curve]
Cc1ccc(C(=O)CSc2nnc(-c3ccco3)o2)o1	–	inconclusive [inhibitor, single point]
O=[N+]([O-])c1cc(-c2n[nH]c(-c3ccccc3)n2)cc([N+](=O)[O-])c1	inactive: 1.84%	–
COc1ccccc1-n1c(SCC(=O)N2CCCC2)nc2cccnc21	–	inconclusive [inhibitor, single point]

Compound	activity, negative = inhibition	Potency
COc1ccc(C(=O)N2CCCC2)cc1	inactive: -14.2%	–
CNS(=O)(=O)c1ccccc1C(=N)c1ccccc1	inactive: 6.22% [at 13.5 µM]	–
Cn1c(-c2ccc(F)cc2)cnc1NCc1ccc(C#N)cc1	–	active: 5.01 µM
O=C(Nc1cccc([N+](=O)[O-])c1)Nc1ccc(Cl)cn1	inactive: 11.7%	–
COc1ccc(OCC(O)CNS(=O)(=O)c2ccc(C)cc2)cc1 (centres undefined)	–	inconclusive [inhibitor, partial curve]
CCCN(CC1CC1)C(=S)Nc1ccc(Oc2ccccc2)cc1	inactive: -7.36%	–
Cc1ccc(/C=N/NC(=O)c2sccc2OCc2ccc(F)cc2)cc1	–	inconclusive [inhibitor, partial curve]
CCOc1ccc(CC(=O)C2C(=O)CCCC2=O)cc1OCC	–	inconclusive [inhibitor, single point]
Cc1ccc(Nc2nc(-c3c(C)nc4ccccn34)cs2)cc1	–	inconclusive [inhibitor, single point]
COc1ccc(NC(=O)Cc2c[nH]c3ccccc23)cc1S(=O)(=O)N1CCOCC1	inactive: 4.77%	–
CON(C)C(=O)c1nnc2c(n1)[nH]c1ccccc12	inactive: -5.14% [at 13.5 µM]	–
CCCCCC(=O)N/N=C(\C)c1ccc(Cl)cc1	–	inconclusive [inhibitor, partial curve]
O=C(Nc1ccccc1)N1CCCC2CCCCC21 (centres undefined)	inactive: -11.5%	–
[ClH+][Cu][ClH+].[Cu].[OH2+]c1ccc2ccccc2c1CN1CCCCC1.[OH2+]c1ccc2ccccc2c1CN1CCCCC1	–	active: 1.78 µM
COC(=O)c1ccc(NC(=O)CNS(=O)(=O)c2cccs2)cc1	–	inconclusive [inhibitor, single point]
c1ccc(C(Cc2nc(-c3ccncc3)no2)c2ccccc2)cc1	inactive: -13.8%	–
CC1(C)CC(=O)C(C=NCCc2ccc(O)cc2)=C(O)C1	–	inconclusive [inhibitor, single point]
COc1ccnc(N2CCN(c3ccccc3)CC2)c1C#N	–	inconclusive [inhibitor, single point]
Cc1ccn(CC(=O)N2N=C(C(F)F)CC2(O)C(F)F)n1 (centres undefined)	inactive: 8.82%	–
CC(=O)Nc1ccc(C(=O)CSc2nnc(Cn3nnc4ccccc43)n2C)cc1	–	inconclusive [inhibitor, single point]
CN(Cc1ccncc1)C1CC(=O)N(c2ccc(F)cc2)C1=O (centres undefined)	–	active: 17.8 µM
Cc1nnc(Sc2cc(NCCCO)c([N+](=O)[O-])c3nonc23)s1	–	inconclusive [inhibitor, partial curve]
O=C(c1ccccc1)N1CCN(CC2CC=CCC2)CC1 (centres undefined)	–	inconclusive [inhibitor, single point]
O=C(NCc1ccco1)c1ccc(S(=O)(=O)N2CCOCC2)cc1	–	active: 15.8 µM
